Measured values as given in the supplement of paper PMC4604168 (melanoma cell lines).
The list shows a part of the results. Repeats are few or missing, and single values can be far off.

The compounds below were run on MZ2-MEL (assay: cell count relative to DMSO control; melanoma cells; higher = more viable cells). Settings: library dose: standard library concentration; 72 h.
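Further: cells treated in 1,536-well plates, then fixed and DAPI-stained, with nuclei counted from automated high-throughput microscope images.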

Compound | cell count [%]
CN(c1ncccc1CNc1nc(Nc2ccc3c(c2)CC(=O)N3)ncc1C(F)(F)F)S(C)(=O)=O + C[C@@H]1CCN(C(=O)CC#N)C[C@@H]1N(C)c1ncnc2[nH]ccc12 [CP690550] (first compound 0.4 µM, partner dose 5 µM) | 110
CCCS(=O)(=O)Nc1ccc(F)c(C(=O)c2c[nH]c3ncc(Cl)cc23)c1F + Oc1cc(-c2nc(-c3ccccc3)[nH]c2-c2ccncc2)ccc1Cl [L779450] (first compound 0.4 µM, partner dose 1 µM) | 87.4
C=C(c1ccc(C(=O)O)cc1)c1cc2c(cc1C)C(C)(C)CCC2(C)C [Bexarotene] + Oc1nc(-c2ccc(C(F)(F)F)cc2)nc2c1CSCC2 [XAV939] (first compound 10 µM, partner dose 10 µM) | 80.7
C=C(c1ccc(C(=O)O)cc1)c1cc2c(cc1C)C(C)(C)CCC2(C)C [Bexarotene] + CCCS(=O)(=O)Nc1ccc(F)c(C(=O)c2c[nH]c3ncc(Cl)cc23)c1F [PLX4720] (first compound 10 µM, partner dose 0.4 µM) | 37.4
CN(c1ncccc1CNc1nc(Nc2ccc3c(c2)CC(=O)N3)ncc1C(F)(F)F)S(C)(=O)=O + Cc1cc(N2CCOCC2)cc2[nH]c(-c3c(NC[C@@H](O)c4cccc(Cl)c4)cc[nH]c3=O)nc12 [BMS536924] (first compound 0.4 µM, partner dose 1 µM) | 102
CS(=O)(=O)c1ccc(C(=O)Nc2ccc(Cl)c(-c3ccccn3)c2)c(Cl)c1 [vismodegib] + O=C(CCCCCCC(=O)Nc1ccccc1)NO [vorinostat] (first compound 5 µM, partner dose 0.4 µM) | 99
NC1(c2ccc(-c3nc4ccn5c(=O)[nH]nc5c4cc3-c3ccccc3)cc2)CCC1 + Nc1cccc2c1CN(C1CCC(=O)NC1=O)C2=O [lenalidomide] (first compound 2 µM, partner dose 5 µM) | 96.1
CS(=O)(=O)c1ccc(C(=O)Nc2ccc(Cl)c(-c3ccccn3)c2)c(Cl)c1 [vismodegib] + COc1ccc(-c2ccc3c(N4CCOCC4)nc(N4C[C@@H](C)O[C@@H](C)C4)nc3n2)cc1CO [KU0063794] (first compound 5 µM, partner dose 0.1 µM) | 84.9
CS(=O)(=O)c1ccc(C(=O)Nc2ccc(Cl)c(-c3ccccn3)c2)c(Cl)c1 [vismodegib] + C=CCn1c(=O)c2cnc(Nc3ccc(N4CCN(C)CC4)cc3)nc2n1-c1cccc(C(C)(C)O)n1 [MK1775] (first compound 5 µM, partner dose 0.1 µM) | 102
NC1(c2ccc(-c3nc4ccn5c(=O)[nH]nc5c4cc3-c3ccccc3)cc2)CCC1 + Cn1cc(/C=C2\C(=O)Nc3cccnc32)c2ccccc21 [GW441756] (first compound 2 µM, partner dose 2 µM) | 87.9
C=C(c1ccc(C(=O)O)cc1)c1cc2c(cc1C)C(C)(C)CCC2(C)C [Bexarotene] + O=C1NC(=O)/C(=C/c2ccc(-c3ccc(F)cc3O)o2)S1 [AS252424] (first compound 10 µM, partner dose 5 µM) | 87.4
CN(c1ncccc1CNc1nc(Nc2ccc3c(c2)CC(=O)N3)ncc1C(F)(F)F)S(C)(=O)=O + Cn1c(Nc2ccc(C(F)(F)F)cc2)nc2cc(Oc3ccnc(-c4ncc(C(F)(F)F)[nH]4)c3)ccc21 [CHIR265] (first compound 0.4 µM, partner dose 0.4 µM) | 45.7
CS(=O)(=O)c1ccc(C(=O)Nc2ccc(Cl)c(-c3ccccn3)c2)c(Cl)c1 [vismodegib] + Cn1nnc2c(C(N)=O)ncn2c1=O [temozolomide] (first compound 5 µM, partner dose 10 µM) | 85.9
CCCS(=O)(=O)Nc1ccc(F)c(C(=O)c2c[nH]c3ncc(Cl)cc23)c1F + Cn1nnc2c(C(N)=O)ncn2c1=O [temozolomide] (first compound 0.4 µM, partner dose 10 µM) | 79
C=C(c1ccc(C(=O)O)cc1)c1cc2c(cc1C)C(C)(C)CCC2(C)C [Bexarotene] + C#Cc1cccc(Nc2ncnc3cc(OCCOC)c(OCCOC)cc23)c1 [erlotinib] (first compound 10 µM, partner dose 4 µM) | 87.7
